# Test results reported in PubChem BioAssay AID624417 (National Center for Advancing Translational Sciences (NCATS), 2012).
# The campaign covered roughly 410,000 compounds. About 6,400 (1.6%) were called active. Inconclusive means that the source gave no clear call. Such entries were picked first, then a sample of the others. Calls come from the whole dose curve; as a rule, active = well fitted inhibition curve with a large enough effect; inconclusive = small, poorly fitted or top-dose-only effect; inactive = no such curve, though single readings can be large or run the other way. No potency is given beside an inconclusive call; the fits are too rough.
# Biological target: Glucagon-like peptide 1 receptor (Homo sapiens) (UniProt P43220)
# Assay: qHTS of GLP-1 Receptor Inverse Agonists (Inhibition Mode); note: nearly all actives have a fitted effect of over 55% in size
# Settings: HEK293 GLP-1R CRE-luciferase, luminescence, 24 h, GLP-1R form is constitutively active; series mostly up to 38.3 µM
# Summary of the method: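 Inverse agonists were sought by their lowering of basal cAMP reporter luciferase output in HEK293 cells stably carrying constitutively active human GLP-1R, after 24 h compound treatment.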
# Potency is the fitted concentration of half-maximal effect; tags give direction and shape of the fitted curve.
# Chain of UniProt P43220 (P43220 whole entry, looked up): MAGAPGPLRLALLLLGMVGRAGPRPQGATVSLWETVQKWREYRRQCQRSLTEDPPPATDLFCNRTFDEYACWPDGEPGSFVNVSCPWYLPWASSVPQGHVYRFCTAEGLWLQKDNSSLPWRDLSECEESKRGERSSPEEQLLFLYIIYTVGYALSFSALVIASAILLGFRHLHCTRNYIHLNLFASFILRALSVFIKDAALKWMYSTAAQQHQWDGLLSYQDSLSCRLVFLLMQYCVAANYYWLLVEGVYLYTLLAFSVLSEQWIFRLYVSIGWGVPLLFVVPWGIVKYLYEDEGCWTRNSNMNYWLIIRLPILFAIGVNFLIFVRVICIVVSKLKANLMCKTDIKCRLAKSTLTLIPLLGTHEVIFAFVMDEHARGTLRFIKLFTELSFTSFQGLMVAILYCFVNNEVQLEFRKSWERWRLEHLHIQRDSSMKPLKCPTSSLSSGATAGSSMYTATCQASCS
row,Structure (SMILES),Potency
1,CCOc1ccc(S(=O)(=O)N(C)C2CCCCC2)cc1,"inconclusive [inhibitor, partial curve, poor fit]"
2,CC(C)(C)NC(=O)CSCc1ccc(Br)cc1,"inconclusive [inhibitor, single point]"
3,Cc1ccc(Cc2c(C3CCCCC3)nc3cc(C)c(Br)c(C)n23)cc1,"inconclusive [inhibitor, full curve, poor fit]"
4,COc1cc(OC)cc(-c2c(C#Cc3ccsc3)c3cc(Br)ccc3n2C)c1,"inconclusive [inhibitor, partial curve]"
5,N#C/C(C(=O)c1ccccc1)=C1/CCCCCN1,inactive
6,CC(C)C[C@H]1CN([C@@H](Cc2ccccc2)CN2CCC[C@@H]2CN2C(=O)C(=O)NC[C@@H]2Cc2ccccc2)C(=O)C(=O)N1CCc1ccccc1,"inconclusive [inhibitor, single point]"
7,CC(=O)Nc1ccc(C2=NNC(=Nc3cccc(S(=O)(=O)N(C)C)c3)SC2)cc1,"inconclusive [inhibitor, single point]"
8,O=C(O)c1ccc(N2C(=O)Nc3ccccc3N2O)cc1,"inconclusive [inhibitor, full curve, poor fit]"
9,COc1ccc(Cn2c(=O)[nH]c3cc(C(=O)NCCCN4CCCCC4)ccc3c2=O)cc1,"inconclusive [inhibitor, single point]"
10,Cc1ccc(CN(C(=O)c2csnn2)C(C(=O)NC2CCCC2)c2ccco2)cc1 (configuration not stated),"inconclusive [inhibitor, single point]"
11,Fc1ccccc1-c1ccc(/C=N/Nc2nc3ccccc3[nH]2)o1,"inconclusive [inhibitor, single point]"
12,O=C1C(Cc2ccccc2)NC(=S)N1c1ccccc1 (configuration not stated),inactive
13,Cc1cc(CN(C)Cc2cn(C)nc2-c2ccc(Oc3ccccc3)cc2)on1,"inconclusive [inhibitor, partial curve]"
14,CCc1nnc(NS(=O)(=O)c2ccc(NC(=O)c3ccc(Cl)cc3)cc2)s1,"inconclusive [inhibitor, single point]"
15,Clc1ccc(CSC2=NCCCN2)cc1Cl,active: 8.91 µM
16,Cc1cc(Br)ccc1NC(=O)C1CCN(C(=O)c2ccco2)CC1,"inconclusive [inhibitor, partial curve, poor fit]"
17,CCOC(=O)CNC(=O)CSc1nnc(NC(=O)c2ccc(C)cc2)s1,"inconclusive [inhibitor, full curve, poor fit]"
18,COc1ccc(-c2noc(Cc3ccc(Cl)cc3)n2)cc1OC,"inconclusive [inhibitor, single point]"
19,Cc1ccc(-c2nc3sc(CCNS(=O)(=O)c4cc(F)ccc4F)c(C)n3n2)cc1,inactive
20,Cc1ccc(Cl)cc1-n1c(=O)cc(N2CCN(c3ccc(F)cc3)CC2)[nH]c1=O,inactive
21,Cc1nn(-c2ccccc2)c(C)c1C(=O)OCC(=O)c1c(N)n(CC(C)C)c(=O)n(C)c1=O,"inconclusive [inhibitor, single point]"
22,CN(Cc1ccccc1NS(=O)(=O)c1ccc2ccccc2c1)C1CCCCC1,"inconclusive [inhibitor, partial curve, poor fit]"
23,CCN(CC)S(=O)(=O)c1ccc2oc(C(=O)NCc3ccc(C)cc3)c(C)c2c1,"inconclusive [inhibitor, partial curve]"

row,Structure (SMILES),Potency
1,Cc1ccc(-n2nnnc2SCC(=O)NC(=O)Nc2ccc3c(c2)OCCO3)cc1,inactive
2,COc1ccc(Cl)cc1NS(=O)(=O)c1ccc2[nH]c3c(c2c1)CCCC3,"inconclusive [inhibitor, single point]"
3,CC1C(C)N(C(=O)CCl)c2ccccc2N1C(=O)CCl (configuration not stated),"inconclusive [inhibitor, single point]"
4,COc1ccc(S(=O)(=O)N2CCCCC2)cc1NC(=O)Cc1ccc(Br)cc1,inactive
5,Fc1ccc(NC(=S)Nc2ccc(Br)cc2)cc1,"inconclusive [inhibitor, single point]"
6,CSC(=S)N/N=C/c1ccc(Br)cc1,"inconclusive [inhibitor, single point]"
7,CCCOc1cccc(NC(=O)c2c(-c3ccccc3Cl)noc2C)c1,"inconclusive [inhibitor, single point]"
8,CCCCNC(=S)N=Nc1c(O)[nH]c2ccccc12,"inconclusive [inhibitor, partial curve, poor fit]"
9,COC(=O)Cc1ccc(NC(=S)N2CCN(c3ccc(OC)cc3)CC2)cc1,inactive
10,O=C(c1ccccc1)c1ccc(OCC(O)CNCc2ccc(Cl)cc2)cc1 (configuration not stated),"inconclusive [inhibitor, single point]"
11,NC(=S)N/N=C/c1ccc(-c2cccc([N+](=O)[O-])c2)o1,inactive
12,Oc1ccccc1C=NNc1nc2ccccc2s1,"inconclusive [inhibitor, full curve, poor fit]"
13,Cc1ccccc1NC(=O)c1nc(S(C)(=O)=O)ncc1Cl,"inconclusive [inhibitor, single point]"
14,CCN(CC)C(=O)CSc1nc2c(sc(=S)n2-c2ccccc2OC)c(=O)n1-c1ccccc1,"inconclusive [inhibitor, single point]"
15,CCOC(=O)c1ccc(-n2c(C)nc3c(cnn3-c3ccccc3Cl)c2=O)cc1,"inconclusive [inhibitor, partial curve, poor fit]"
16,COc1ccc(OC)c(NC(=O)Cn2cnc3ccc(S(=O)(=O)N4CCC(C)CC4)cc3c2=O)c1,inactive
17,COc1ccc(S(=O)(=O)NCC2CCC(C(=O)NCc3cccnc3)CC2)cc1 (configuration not stated),"inconclusive [inhibitor, full curve]"
18,CCCCNc1c(-c2cccc(-c3ccc(OC)cc3)c2)nc2cc(C)ccn12,active: 11.2 µM
19,O=C(O)c1nn(CC(=O)N2CCN(c3ncc(C(F)(F)F)cc3Cl)CC2)c(=O)c2ccccc12,"inconclusive [inhibitor, full curve, poor fit]"
20,O=C(Nc1nc(-c2ccccc2)cs1)C1COc2ccccc2O1 (configuration not stated),"inconclusive [inhibitor, partial curve, poor fit]"
21,Cc1cccc(-n2nnnc2SCC(=O)c2cc(C)n(CC3CCCO3)c2C)c1 (configuration not stated),"inconclusive [inhibitor, single point]"
22,Cc1ccc(S(=O)(=O)NCC2CCC(C(=O)N3CCN(C)CC3)CC2)cc1 (configuration not stated),"inconclusive [inhibitor, partial curve]"
23,CC(C)(C)c1ccc(C(=O)NCCc2csc3nc(-c4ccccc4F)nn23)cc1,"inconclusive [inhibitor, single point]"

row,Structure (SMILES),Potency
1,O=C(CNCc1ccccc1Cl)Nc1ccc2c(c1)OCCO2,inactive
2,COc1cccc(-c2nc(COc3ccc(Cl)cc3Cl)no2)c1,"inconclusive [inhibitor, single point]"
3,COCCCn1c(SCC(=O)Nc2cccc(C)n2)nnc1-c1ccco1,inactive
4,CCn1c(=O)c2[nH]c(Cl)nc2n(CC)c1=O,"inconclusive [inhibitor, partial curve, poor fit]"
5,CCn1c(C)nc2cc(C(=O)N/N=C(\C)c3ccc(OC)cc3O)ccc21,"inconclusive [inhibitor, single point]"
6,Cc1ccc2c(CN3CCN(C(=O)c4ccc(F)cc4)CC3)cc(=O)oc2c1,inactive
7,O=c1c2ccccc2c2ccccc2c(=O)n1Nc1ccccc1,"inconclusive [inhibitor, partial curve, poor fit]"
8,Nc1cccc(-c2nc3ccccc3[nH]2)c1,inactive
9,N#Cc1ccc(C2=CC(=O)C[C@H](c3ccc(Cl)cc3)C2)cc1,"inconclusive [inhibitor, single point]"
10,COc1cccc(C(=O)Nc2ccc3nc(SCC(=O)N4CCOCC4)sc3c2)c1,"inconclusive [inhibitor, single point]"
11,COc1ccc(C(=O)Nc2ccc(-c3ccc(C)o3)cc2)cc1S(=O)(=O)N1CCOCC1,"inconclusive [inhibitor, full curve, poor fit]"
12,Cc1nn(-c2ccccc2)c(N2CCCC2)c1/C=N/n1cnc2scc(-c3ccccc3)c2c1=O,"inconclusive [inhibitor, full curve, poor fit]"
13,Cc1ccc(NC(CC(=O)c2ccccc2)c2ccc(F)cc2)cc1 (configuration not stated),inactive
14,COc1cc2nc(NCCC(C)C)n3nc(-c4ccccc4)nc3c2cc1OC,inactive
15,CCOc1ccc(NC(=S)N2CCN(S(=O)(=O)c3ccc(OC)cc3)CC2)cc1,"inconclusive [inhibitor, single point]"
16,COc1ccc(OCc2cc(C(=O)N3CCN(C4CCCC4)CC3)no2)c(Cl)c1,"inconclusive [inhibitor, partial curve, poor fit]"
17,CCOC(=O)c1c(C)oc2ncnc(N3CCN(c4ccccc4F)CC3)c12,inactive
18,O=C(Cc1cccs1)NC1CC(=O)N(c2cccc(F)c2)C1 (configuration not stated),inactive
19,O=C(CCc1ccccc1)NCCSc1ccccc1,"inconclusive [inhibitor, partial curve, poor fit]"
20,CN(CC(=O)Nc1nc2ccccc2s1)S(=O)(=O)c1ccccc1,"inconclusive [inhibitor, single point]"
21,CCc1ccccc1N(CC(=O)NCCc1ccccc1)C(=O)CCC(=O)Nc1ccccn1,"inconclusive [inhibitor, partial curve, poor fit]"
